# Out of some 310,000 compounds screened, about 14,000 (4.5%) showed an effect of 50% or more. The effect is printed as a negative number. The list shows a part of the results. Where a SMILES comes first, the peptide text is derived from it. The star is where a group is joined. Cbz = O=C(OCc1ccccc1)*
# Molecular target: human ether-à-go-go-related gene (hERG) potassium channel (human, UniProt Q12809)
# Assay: primary screen, population patch clamp on CHO cells stably expressing hERG
# 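Note: peak tail current of the secondary pulse compared with the same well before compound.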
# human ether-à-go-go-related gene (hERG) potassium channel, sequence (Q12809 whole entry, looked up): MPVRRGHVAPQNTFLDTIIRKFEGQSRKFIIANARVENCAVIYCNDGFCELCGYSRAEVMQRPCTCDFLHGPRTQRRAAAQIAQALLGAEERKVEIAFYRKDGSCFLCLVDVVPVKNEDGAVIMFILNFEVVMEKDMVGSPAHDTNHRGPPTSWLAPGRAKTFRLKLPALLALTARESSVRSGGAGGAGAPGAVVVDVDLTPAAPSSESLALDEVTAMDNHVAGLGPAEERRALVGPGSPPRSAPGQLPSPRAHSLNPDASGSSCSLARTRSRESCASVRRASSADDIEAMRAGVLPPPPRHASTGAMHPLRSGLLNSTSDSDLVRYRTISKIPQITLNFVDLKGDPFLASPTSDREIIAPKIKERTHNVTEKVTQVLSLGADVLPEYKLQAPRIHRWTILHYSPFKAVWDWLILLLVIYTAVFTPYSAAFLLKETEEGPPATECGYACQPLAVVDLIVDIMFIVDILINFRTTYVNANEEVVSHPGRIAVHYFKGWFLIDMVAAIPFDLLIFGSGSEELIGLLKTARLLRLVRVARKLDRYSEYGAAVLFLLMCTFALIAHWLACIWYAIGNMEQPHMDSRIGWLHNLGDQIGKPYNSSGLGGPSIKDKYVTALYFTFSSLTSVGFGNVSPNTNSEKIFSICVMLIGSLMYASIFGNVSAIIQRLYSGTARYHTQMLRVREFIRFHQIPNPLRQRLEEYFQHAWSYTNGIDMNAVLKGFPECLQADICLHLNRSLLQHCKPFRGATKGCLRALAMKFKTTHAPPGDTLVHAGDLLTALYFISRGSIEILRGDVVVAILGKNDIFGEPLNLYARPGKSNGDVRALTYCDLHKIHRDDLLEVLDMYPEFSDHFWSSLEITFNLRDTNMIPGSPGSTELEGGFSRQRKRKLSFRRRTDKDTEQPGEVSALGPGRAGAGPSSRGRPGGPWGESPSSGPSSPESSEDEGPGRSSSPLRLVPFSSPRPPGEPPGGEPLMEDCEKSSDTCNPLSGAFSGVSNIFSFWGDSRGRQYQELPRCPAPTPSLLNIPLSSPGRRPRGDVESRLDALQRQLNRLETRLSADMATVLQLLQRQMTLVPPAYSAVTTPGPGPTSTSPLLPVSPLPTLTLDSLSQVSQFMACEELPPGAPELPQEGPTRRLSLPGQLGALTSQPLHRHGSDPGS
row,SMILES,"hERG current change (%, negative = inhibition) at 10uM [%]"
1,COc1ccc(C2CC(c3cccs3)=NN2C(=O)CSc2nnnn2C)cc1OC (stereo not shown),-25.1
2,O=C(O)Cc1ccc2ccc3ccccc3c2c1,12.7
3,O=C(NCc1csc(-c2cccs2)n1)c1ccsc1,-6.54
4,COC(=O)C(C)NC(=O)C1CCCN1C(=O)CNC(=O)OCc1ccccc1 (stereo not drawn) (Cbz-Gly-Pro-Ala-OMe; configuration not given here),21.2
5,CN(CC(=O)Nc1ccccc1C(F)(F)F)CC(=O)N1CCCCCC1,-4.79
6,CC1CN(CCCCSc2ccc(Cl)cc2)CC(C)O1.O=C(O)C(=O)O (stereo not shown),-31.6
7,O=C(C#Cc1ccccc1)c1cccc([N+](=O)[O-])c1,19.4
8,CCn1c(Cc2ccccc2)nnc1SCC(=O)Nc1ccc(N2CCOCC2)c(Cl)c1,-5.94
9,Nc1nnc(SC2CC(=O)N(c3ccccc3)C2=O)s1 (stereo not shown),16.8
10,Cc1ccnc(NC(=O)COc2ccc3oc4c(c3c2)CCCC4)c1,11.2
11,CCc1nc2n[nH]c(N)c2c2c1CCCC2,1.37
12,CCc1nnc(NC(=O)c2ccc(S(=O)(=O)N3CCCCC3C)cc2)s1 (stereo not shown),14.4
13,CCC(=O)Nc1sc2c(c1C#N)CC(C)(CC)OC2 (stereo not shown),-2.16
14,CNC(=O)n1ccc(C(=O)N2CCCCC2)n1,11.1
15,COc1ccccc1NC(=O)CSc1nc2ccccc2c(=O)n1CCNC(C)=O,-62.2
16,COc1ccc(C(=O)N2CC3(CC(c4cccc(NC(=O)CC(c5ccccc5)c5ccccc5)c4)=NO3)C[C@H]2C(N)=O)cc1 (stereo partly shown),1.82
17,CC(C)(C)C(=O)COC(=O)c1ccc2c(c1)C(=O)N(Cc1ccco1)C2=O,-8.27
18,Cc1ccc(OCCN2CCNCC2)c([N+](=O)[O-])c1.O=C(O)C(=O)O,-5.84
19,O=C(NCCCNc1ccc(C(F)(F)F)cc1[N+](=O)[O-])c1cc(F)c(F)cc1Cl,-15.7
20,COc1cc(NC(=O)c2cccs2)c(C(=O)OCC(=O)NC(=O)NCc2ccccc2)cc1OC,-5.74
21,COc1ccc(CCNC(=O)C/C(C)=N/NC(=O)Cc2cccc3ccccc23)cc1OC,3.71
22,O=C(Nc1ccccc1C(=O)N1CCCCCC1)c1ccc(Cl)cc1,25.2

row,SMILES,"hERG current change (%, negative = inhibition) at 10uM [%]"
1,Clc1ccc(CNC2CCN(Cc3ccccc3)CC2)cc1,-72.7
2,CCn1nnc(-c2ccccc2NS(=O)(=O)c2ccc(C(=O)OC)cc2)n1,-2.42
3,C/C(=N/Nc1ncc(C(F)(F)F)cc1Cl)c1ccncc1,-6.36
4,NNc1nc2c(F)cccc2s1,-18.4
5,CC(=O)C[C@H]1c2cc(C(F)(F)F)ccc2S(=O)(=O)N1Cc1ccccc1,-22.3
6,CCN(CC)S(=O)(=O)c1ccc(OCC(=O)NC2CCS(=O)(=O)C2)c([N+](=O)[O-])c1 (stereo not shown),13.6
7,O=C(Oc1ccc2c(=O)c(Cl)coc2c1)c1ccncc1,4.28
8,CC(=O)Nc1ccc2c3c(cccc13)C(=O)N(c1ccccc1)C2=O,18.9
9,CC1(C)CC(=O)C(C(c2cc([N+](=O)[O-])ccc2Cl)C2C(=O)CC(C)(C)CC2=O)C(=O)C1,-1.87
10,O=S(=O)(c1ccccc1)N(CC1CO1)c1ccccc1 (stereo not shown),-0.159
11,C[C@H](NC(=O)c1ccco1)C(=O)Nc1ccc(C#N)cc1,3
12,Cc1nnsc1-c1nnc(SCC(=O)c2ccc(F)cc2)n1C1CC1,3.13
13,Cc1cccc(N(C)C(=O)COc2cc(=O)n(C)c3ccccc23)c1,-12.7
14,C=CCn1c(SCC(=O)Nc2cc3oc4ccccc4c3cc2OC)nnc1-c1cnccn1,-7.06
15,O=C(CSc1n[nH]c(-c2ccccc2F)n1)Nc1cc(F)ccc1F,-10.8
16,COC(=O)c1cc(OC)c(OC)cc1NC(=O)Nc1ccccc1F,11.8
17,CCOC(=O)C1=C(COC(=O)COc2ccccc2OCC)NC(=O)NC1C (stereo not shown),8.51
18,Nc1cc(N)c(OCC(F)(F)F)cc1OCC(F)(F)F,18
19,Cc1c(C)n2c(SCC(=O)NC3CCCCC3)nnc2[nH]c1=O,-8.13
20,CC(=O)Nc1ccc(NC(=O)CSc2ccc(-c3ccc(-n4ccnc4)cc3)nn2)cc1,12.5
21,COc1ccc(CCNC(=O)CN2CCN(c3cccc(C(F)(F)F)c3)CC2)cc1,-46.3

# Source: paper PMC4336329 (PLoS ONE, 2015)
